Read counts are not given, so values of variants with three or more changes are uncertain.
B1: OR4K15 (parent)
chain: GUUAACGGUCAUAGGCCAUGGAAACUAGGAGCACCAUUUCGCUGCCAGUGAAGAAAUGAACAAAGAAAAUCUGGGCCAGGCAGGCAUCAAAAGAAAUAGUCUUGCGCUCAACCAGAAAGUCUGUAAUCAUUUUAAGGGUA

Variants of: B1
Test: self-cleavage, relative activity (ratio to wild type); higher = more cleavage; in vitro, sequencing; the parent is a self-cleaving ribozyme

| Variant | self-cleavage |
| --- | --- |
| GUUAACGGUCAUAGGCCAUGGAAACUAGGAGCACCAUUUCGCUGCCAGCGAAGAAAUGAACAAAGAAAAUCAGGGCCAGGCAGGCAUCAAAAGAAAUAGUCUUGCGCUCAACCGGAAAGUCUGUAAUCAUUUUAAGGGUA | 0.06 |
| GUUAACGGUCAUAGGCCAUGGAAACUAGGAGCACCAUCUCGCUGCCAGUGAAGAAAUGAACAAAGAAGAUCUGGGCCAGGCAGGCAUCAAAAGAAAUAGUCUUGCGCUCAACCAGAAGGUCUGUAGUCAUCUUAAGGGUA | 0.87 |
| GUUAACGGUCAUAGGCCAUGGAAACCAGGAGCACCAUUUCGCUGCCCGUGAAGAAAUGAACAAAGAAAAUCUGAGCCAGGCAGGCAUCAAAAGAAAUAGUCUUGCGCUCAACCGGAAAGCCUGUAAUCAUUUUAAGAGUA | 0.03 |
| GUUAACGGUCAUAGGCCGUGGAAACUAGGAGCACCAUUUCGCUGCCAGUGAAGAAAUGAACAAAGAAAAUCUAGGCCAGGCAGGCAUCAAAAGAAAUAGUCUUGCGCUCAACCAGAAAGUCCGUAAUCAUUUUAAGGGUA | 0.07 |
| GUUAACGGUCAUAGGCCAUGGAAUCUAGGAGCACCAUUUCGCUGCCAGUGAGGAAAUGAACAAAGAAAAUCUGGGCCAGGCAGGCAUCAAAGGUAAUAGUCUUGCGCUCAACCAGAAAGUCUGUAAUCAUUUUAAGGGUA | 1.41 |
| GUUAACGGUCAUAAGCCAUGGAAGCUAGGGGCACCAUUUCGCUGCCAGUGAAGAAGUGAACAAAGAAAAUCUGGGCCAGGCAGGCAUCAAAAGAAAUAGUCUUGCGCUCAACCAGAAAGUCUGUAAUCAUCUUAAGGGUA | 1.74 |
| GUUAACGGUCAUAGGCCAUGGAAACUAGGAGCCCCAUUUCGCUGCCAGUGAAGAAACGAACAAAGAAAAUCUGGGUCAGGCAGGCAUCAAAGGAAAUAGCCUUGCGCUCAACCAGAAAGUCUGUAAUCAUUUUAAGGGUA | 0.26 |
| GUUAACGGUCAUAGGCCAUGGAAACUAGGAGCACCAUUUCGCUGCCAGUGAAGAGAUGGACAAAGAAAAUCUGGGCCAGGCAGGCAUCAAAAGAAAUAGUCUUGCGCUCAACCAGAAAGUCUGUAAUCAGUUUAAGGGUA | 1.03 |
| GUUAACGGUCAUAGGCCAUGGAAACUAGGAGCACCAUUUCGCUGCCAGUGAGGAAAGGAACAAGGAAAAUCUGGGCCAGGCAGGCAUCAAAAGAAAUAGUCUUGCGCUCAACCAGAAAGUCUGUAAUCAUUUUAAGGGUA | 1.86 |
| GUUAACGGUCAUAGGCCAUGGGAACUAGGAGCACCACUUCGCUGCCAGUGAAGAAAUGAACAAAGAAAAUCUGGGCCAGGCAGGCAUCAAAAGAAAUAGUCUUGCGCUCUACCAGAAAGUCUGUAAUCACUUUGAGGGUA | 0.44 |
| GUUAACGGUCAUAGGCCAUGGAAAAUAGGAGCACCAUUUCGCUGCCAGUGAAGAAAUGAACAAAGAAAAUCUGGGCCGGGCAGGCAUCAAAAGAAAUAGUCUUGCGCUCAACCAGAAAGUCUGUAAUCAUUUUAAGGGCA | 0.17 |
| GUUAACGGUCAUAGGCCAUGGAAACUAGGAGUACCAUUUCGCUGCCAGUGAAGAAAUGAACGAAGAAGAUCUGGGCCAGGCAGGCAUCAAAAGAAAUAGUCUUGCGCUCAACCAGAAAGUCUGUAAUCAUUUUAAGGGUA | 1.04 |
| GUUAACGGUCAUAGGCCGUGGAAACUAGGAGCCCCAUUUCGCUGCCAGUGAAGAAAUGAACAAAGAAAAUCUGGGCCUGGCAGGCAUCAAAAGAAACAGUCUCGCGCUCAACCAGAAAGUCUGUAAUCAUUUUAAGGGUA | 0.04 |
| GUUAACGGUCAUAGGCCAUGAAAACUAGGAGCACCAUUUCGCUGCCAGUGAAGAAAUGAACAAAGAAAAUCUGGGCCAGGCAGGCAUCAAAAGAAAUAGUCUUGCGCUCAACCAGAAAGUCUGCAACCAUUUUAAGGGUA | 0.58 |
| GUUAACGGUCAUAGGCCAUGGAAACUAGGAGCACCAUUUCGCUGCCAGUGAAGAAAUGAACGAAGAAAAUCUGGGCCAGGCAGGCAUCAAAAGAAAUAGUCUUGCGCGCAACCCGGAAGUCUGUAAUCAUUUUAAGGGUA | 0 |
| GUUAACGGUCAUAGGCCAUGGAAACUAGGAGCACCAUUUCGCUGCCAGUGAAGAAUUGAACAAAGAAAAUCUGGGCCAGGCAGGCAUCAAAAGAAAUAGUCUUGCGCCCAACCAGAAAGUCUGUAAUCACUUUAAGGGUA | 0 |
| GUUAACGGUCAUAGGCCAUGGAGACUAGGAGCACCAUUUCGCUGCCAGUGAAGAAAUGAACAAAGAAAAUCUGGGCCAGGCAGGCAUCAAAAGAAAUAGUCUUGCGCUCGACCAGAAAGUCCGUAACCAUUUUAAGGGUA | 0.01 |
| GUUAACGGUCAUAGGCCAUGGAAACUAGGAGCACCAUUUCGCUGCCAGUGAAGAAAUGGACAAAGAAAAUCUAGGCCAGGCAGGCAUCAAAAGAAAUAGCCUUGCGCUCAACCAGAAGGUCUGUGAUCAUUUUAAGGGUA | 0.01 |
| GUUAACGGUCAUAGGCCAUGGAAACUAGGAGCACCAUUUCGCUGCCAGUGUAGAAAUGAACAAAGUAAAUCUGGGCCAGGCAGGCAUCAAAAGAAAUAGUCUUGCGCUCAACCGGAAAGUCUGUAAUCACUUUAAGGGUA | 0.1 |
| GUUAACGGUCAUAGGCCAUGGAGACUAGGAGCGCCAUUUCGCUGCCAGUGAAGAAAUGAACAAAGAAAAUCUGGGCCAGGCAGGCAUCAAAAGAAAUAGUCUUGCGCUCAACCAGAAAGUCUGUUAUCAUUUUAAGGGUA | 1.38 |
| GUUAACGGUCAUAGGCCAUGGAAACUAGGAGCACCAUUUCGCUGCCAGUGAAGAAAUGAACAAAGAAAAUCUGGGCCAGGCAGGCAUCAAAAGAAAUUGUCUUGGGCUCAACCAGAAAGUCUGUAAUCAUUUUAAGAGUA | 0.02 |

From the RNAGym collection of RNA variant scans (doi:10.7554/elife.90254)
